# Results reported in publication PMC4336329 (PLoS ONE, 2015).
# Screen size: about 310,000 compounds; about 2,200 (0.71%) showed an effect of 50% or more. Effects have a minus sign here. The list shows a part of the results.
# Target: human ether-à-go-go-related gene (hERG) potassium channel (human, UniProt Q12809)
# Test: primary screen, population patch clamp on CHO cells stably expressing hERG
# Chain of human ether-à-go-go-related gene (hERG) potassium channel (Q12809 whole entry, looked up): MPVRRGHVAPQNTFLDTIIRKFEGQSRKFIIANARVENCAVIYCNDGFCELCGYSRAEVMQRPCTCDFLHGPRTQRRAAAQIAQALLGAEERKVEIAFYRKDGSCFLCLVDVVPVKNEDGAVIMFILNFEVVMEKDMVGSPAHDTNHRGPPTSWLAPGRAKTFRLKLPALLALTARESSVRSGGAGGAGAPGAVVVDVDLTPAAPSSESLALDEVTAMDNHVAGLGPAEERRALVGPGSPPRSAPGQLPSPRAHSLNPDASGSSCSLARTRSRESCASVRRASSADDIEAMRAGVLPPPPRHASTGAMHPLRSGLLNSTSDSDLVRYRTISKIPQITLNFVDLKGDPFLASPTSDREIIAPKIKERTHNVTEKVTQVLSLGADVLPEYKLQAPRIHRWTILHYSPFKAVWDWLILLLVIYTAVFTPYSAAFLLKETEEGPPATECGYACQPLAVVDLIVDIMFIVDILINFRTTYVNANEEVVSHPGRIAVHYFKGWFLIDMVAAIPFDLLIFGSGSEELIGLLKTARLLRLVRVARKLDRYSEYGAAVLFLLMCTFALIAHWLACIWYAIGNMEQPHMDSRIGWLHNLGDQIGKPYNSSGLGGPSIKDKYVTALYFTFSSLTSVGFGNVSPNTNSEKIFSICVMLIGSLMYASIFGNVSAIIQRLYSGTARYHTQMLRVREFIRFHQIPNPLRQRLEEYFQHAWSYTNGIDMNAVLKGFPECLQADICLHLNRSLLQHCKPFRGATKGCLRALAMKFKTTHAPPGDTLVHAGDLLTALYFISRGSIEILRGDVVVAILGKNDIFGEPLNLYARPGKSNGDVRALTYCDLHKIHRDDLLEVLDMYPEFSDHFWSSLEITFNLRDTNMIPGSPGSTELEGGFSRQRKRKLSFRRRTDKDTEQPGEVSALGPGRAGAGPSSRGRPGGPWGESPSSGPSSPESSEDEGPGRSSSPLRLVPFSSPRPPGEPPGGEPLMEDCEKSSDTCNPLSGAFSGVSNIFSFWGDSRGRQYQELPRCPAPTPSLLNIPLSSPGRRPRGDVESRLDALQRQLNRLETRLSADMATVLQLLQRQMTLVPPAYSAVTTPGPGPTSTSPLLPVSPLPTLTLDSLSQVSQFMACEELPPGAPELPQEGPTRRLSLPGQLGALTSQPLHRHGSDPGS
row,SMILES,"hERG current change (%, negative = inhibition) at 1uM [%]"
1,COc1ccc(O)c(C(=O)c2cc(C#N)c(=O)n(-c3ccc(Cl)cc3)c2)c1,10.1
2,COC(=O)c1ccc(SCc2cnc(Cl)s2)cc1,7.26
3,COc1ccc(S(=O)(=O)N2CCOCC2)cc1NC(=O)CSc1n[nH]c(C(C)C)n1,17.4
4,CCc1nnc(NC(=O)CSc2nnnn2-c2cccc(C(C)=O)c2)s1,14.3
5,CS/C(Nc1cc(Cl)ccc1Cl)=C(/C#N)C(=O)c1ccco1,9.86
6,Cc1ccc(C(=O)NCCCNc2ccc(C(F)(F)F)cc2[N+](=O)[O-])cc1,6.4
7,CCOc1ccc(CN2CCN(Cc3ccon3)CC2CCO)cc1 (centres unmarked),-33.5
8,O=C1CCc2cc(OCCCCc3nnnn3C3CCCCC3)ccc2N1,-46.5
9,O=C(Nc1cccc(F)c1)c1cccnc1NCCc1ccccc1,9.68
10,Cc1ccccc1Cn1c(=O)[nH]c2ccccc21,6.94
11,COc1ccc(S(=O)(=O)N(CC(=O)NCC2CCCO2)Cc2ccccc2)cc1 (centres unmarked),7.44
12,COc1ccc(N2CC(C(=O)Nc3nnc(SCc4ccccn4)s3)CC2=O)cc1 (centres unmarked),7.45
13,O=C(c1ccccc1)N1N=C(c2ccccc2)CC1c1ccccc1 (centres unmarked),13.6
14,CCOC(=O)C1=C(C)N(C)C(=O)NC1c1cc2c(cc1[N+](=O)[O-])OCO2 (centres unmarked),16.9
15,C/C(=N\NC(=O)c1ccc(CN2CCOCC2)cc1)c1cccc([N+](=O)[O-])c1,9.6
16,CC(C)C(=O)NNC(=O)CN1CCN(c2nc(-c3ccccc3)cs2)CC1,3.53
17,Cc1cc(C)nc(/N=C2\NC(=O)CC(C(=O)O)N2c2ccc(Cl)cc2)n1 (centres unmarked),14.8
18,COC(=O)COc1ccc(C(=O)OC)cc1,18.6
19,CCc1c(C)nc(SCC(=O)CC(=O)OC(C)C)c(C#N)c1C,9.18
20,COc1ccc(S(=O)(=O)N2CCN(Cc3cc(OC)c(O)c(OC)c3)CC2)cc1.O=C(O)C(=O)O,13.9
21,CCN(Cc1ccccc1)C(c1ccccn1)c1nnnn1C1CCCCC1 (centres unmarked),-7.86
22,COc1c(N2CCN(C(=S)NC3CC4CCC3C4)C(C)C2)c(F)cc2c(=O)c(C(=O)O)cn(C3CC3)c12 (centres unmarked),3.97

row,SMILES,"hERG current change (%, negative = inhibition) at 1uM [%]"
1,Cc1ccc(C(=O)OCC(=O)NCc2ccc(F)cc2)o1,17.5
2,CC(=O)NC(CC(=O)OCC(=O)N1CCc2ccccc21)c1ccccc1 (centres unmarked),14.8
3,CCCn1nnc(NC(=O)c2ccccc2Br)n1,16
4,CCOc1ccc(NC(=O)CN(C)S(=O)(=O)c2ccc(-c3ccc(=O)[nH]n3)s2)cc1,8.62
5,CC1CCc2nc3ccccc3c(C(=O)OCC(=O)NC3CCS(=O)(=O)C3)c2C1 (centres unmarked),13
6,COc1ccc(N(C(=O)/C=C/c2ccc(OC)c(OC)c2)C2=CC3CCC(C2)N3C)cc1.Cl (centres unmarked),-42.8
7,CCN(C(=O)COC(=O)c1cc(C)n(C2CC2)c1C)c1ccccc1,8.7
8,COC(=O)c1[nH]c2ccc(Cl)cc2c1NC(=O)CN1CCC(C(N)=O)CC1,10.6
9,CC(=O)C1=C(C)OC(N)=C(C#N)C1c1ccco1 (centres unmarked),11.5
10,COc1ccc(OCCCC(=O)Nc2nc(C)c(C(C)=O)s2)cc1,10.2
11,CCOC(=O)C1CCN(C(=O)c2cccnc2)CC1,8.25
12,Br.CCc1ccc(C(=O)Cn2ccsc2=N)cc1,13.7
13,CN(C)Cc1c(C(=O)N/N=C/c2cccs2)nnn1-c1nonc1N,5.63
14,C=CCOC(=O)C1=C(C)OC(N)=C(C#N)C1c1c(C)nn(-c2ccccc2)c1Cl (centres unmarked),8.3
15,Cc1cc(OCC(=O)c2ccc(F)cc2)ccc1N1C(=O)CCC1=O,12.7
16,CC1=C(C(=O)Nc2ccccc2C(=O)NCc2ccccc2)SCCO1,16.5
17,CS(=O)(=O)/C(C#N)=C\c1cnc(S(=O)(=O)c2ccccc2)s1,17.2
18,COC(=O)c1ccc(CSc2nnc(Nc3ccc(C)cc3)s2)o1,13.2
19,Cc1cccc(C)c1NC(=O)CNC(=O)CCC(=O)c1cccs1,-2.47
20,Cc1ccccc1-c1nc(CS(=O)CC(=O)NC2CCCCC2)c(C)o1 (centres unmarked),11.5
21,COc1ccc(NC(=O)c2c(Cl)cnn2C)c(C)c1,7.37
22,Cc1cc(S(=O)(=O)Nc2cccnc2)c(C)s1,2.46
